The values below come from the supplement of paper PMC4967469.

IC50 is the fitted dose that halves viability relative to control wells, and lower means more sensitive; a fit beyond the top or the lowest dose is shown as a bound at that dose. For AUC the same curve is integrated over the 256-fold range of doses and scaled to a fraction; values near 1 show little effect. The top dose, if marked as inferred, was calculated from the reported fits. Some results are limits rather than exact numbers.

Compound in the assay: Cc1ccc(-c2c(C(=O)CF)n(CCCO)c3ncnc(N)c23)cc1 [FMK]
Nature of the assay: Viability of human cancer cell lines after 72 h of drug (GDSC screen). Particulars: top dose inferred. Here is the method: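 Human cancer cell lines in 384-well plates, medium with 10% serum, drug for 72 h over a 256-fold dose range (nine 2-fold or five 4-fold steps up to the top dose). Adherent lines were fixed and stained with the nucleic acid dye Syto60, suspension lines read with resazurin; signal relative to control wells, capped at 0 and 100%. One two-parameter sigmoid per drug and line, fitted in a mixed model over all curves with the slope shared within a line.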
For orientation: IC50 means the point on the concentration scale where inhibition reaches its midpoint. “LC4-1 (lymphoblastic leukaemia, suspension, top dose 20 µM)”: the AUC worked out at 0.931 and the 50% inhibitory concentration (IC50) was > 20 µM.

In the case of “LC-1-sq (lung squamous cell carcinoma, adherent, top dose 20 µM)”, the AUC was found to be 0.962 and the concentration for half-maximal inhibition (IC50) is > 20 µM.

For the cell line “LC-2-ad (lung adenocarcinoma, adherent, top dose 20 µM)”, the AUC came to 0.968 and the half-inhibitory concentration (IC50) is > 20 µM.

Regarding “LCLC-97TM1 (large cell lung carcinoma, adherent, top dose 20 µM)”, the AUC came to 0.908 and the IC50 was > 20 µM.

Turning to “LCLC-103H (large cell lung carcinoma, adherent, top dose 20 µM)”, the AUC was 0.98 and the half-maximal inhibitory concentration (IC50) is > 20 µM.

Take “LK-2 (lung squamous cell carcinoma, adherent, top dose 20 µM)”: the AUC amounted to 0.989 and the concentration for half-maximal inhibition (IC50) is > 20 µM.

“LN-18 (glioma, adherent, top dose 20 µM)”: the AUC was found to be 0.993 and the IC50 is > 20 µM.

For “LN-229 (glioma, adherent, top dose 20 µM)”, the AUC is 0.98 and the IC50 was > 20 µM.

On to “LN-405 (glioma, adherent, top dose 20 µM)”, for which the AUC was determined as 0.98 and the IC50 was > 20 µM.

Turning to “LNZTA3WT4 (glioma, adherent, top dose 20 µM)”, the AUC was determined as 0.987 and the IC50 was > 20 µM.

Consider “LOU-NH91 (lung squamous cell carcinoma, adherent, top dose 20 µM)”, for which the AUC came to 0.984 and the half-inhibitory concentration (IC50) was > 20 µM.

Regarding “LOUCY (T-cell lymphoblastic leukaemia, suspension, top dose 20 µM)”, the AUC turned out to be 0.923 and the half-inhibitory concentration (IC50) is > 20 µM.

Turning to “LOXIMVI (melanoma, semi-adherent, top dose 20 µM)”, the AUC was found to be 0.987 and the half-maximal inhibitory concentration (IC50) is > 20 µM.

Turning to “LP-1 (myeloma, suspension, top dose 20 µM)”, the AUC is 0.992 and the IC50 was > 20 µM.

Regarding “LS-123 (large intestine, adherent, top dose 20 µM)”, the AUC is 0.979 and the 50% inhibitory concentration (IC50) was > 20 µM.

In the case of “LS-180 (large intestine, adherent, top dose 20 µM)”, the AUC stood at 0.985 and the IC50 was > 20 µM.

With “LS-411N (large intestine, adherent, top dose 20 µM)”, the AUC turned out to be 0.973 and the concentration for half-maximal inhibition (IC50) was > 20 µM.

As for “LS-513 (large intestine, adherent, top dose 20 µM)”, the AUC came out at 0.921 and the half-maximal inhibitory concentration (IC50) was > 20 µM.

“LS-1034 (large intestine, adherent, top dose 20 µM)”: the AUC is 0.966 and the IC50 was > 20 µM.

In the case of “LU-65 (large cell lung carcinoma, suspension, top dose 20 µM)”, the AUC was 0.95 and the IC50 is > 20 µM.

On to “LU-99A (large cell lung carcinoma, adherent, top dose 20 µM)”, for which the AUC amounted to 0.979 and the IC50 was > 20 µM.

Turning to “LU-134-A (small cell lung carcinoma, suspension, top dose 20 µM)”, the AUC turned out to be 0.978 and the half-inhibitory concentration (IC50) is > 20 µM.

“LU-139 (small cell lung carcinoma, suspension, top dose 20 µM)”: the AUC came to 0.944 and the IC50 was > 20 µM.

As to “LU-165 (small cell lung carcinoma, suspension, top dose 20 µM)”, the AUC came to 0.987 and the half-inhibitory concentration (IC50) was > 20 µM.

With “LXF-289 (lung adenocarcinoma, adherent, top dose 20 µM)”, the AUC came to 0.976 and the half-inhibitory concentration (IC50) is > 20 µM.

In the case of “LoVo (large intestine, adherent, top dose 20 µM)”, the AUC worked out at 0.987 and the half-inhibitory concentration (IC50) was > 20 µM.

For “M14 (melanoma, adherent, top dose 20 µM)”, the AUC stood at 0.986 and the 50% inhibitory concentration (IC50) is > 20 µM.

Turning to “M059J (glioma, adherent, top dose 20 µM)”, the AUC turned out to be 0.978 and the half-inhibitory concentration (IC50) was > 20 µM.

On to “MC116 (B-cell lymphoma, suspension, top dose 20 µM)”, for which the AUC is 0.999 and the IC50 was > 20 µM.

Consider “MC-CAR (haematopoietic neoplasm, suspension, top dose 20 µM)”, for which the AUC was found to be 0.944 and the IC50 was > 20 µM.

On to “MC-IXC (neuroblastoma, adherent, top dose 20 µM)”, for which the AUC worked out at 0.995 and the IC50 is > 20 µM.

Turning to MCF7 (breast, adherent, top dose 20 µM), the AUC worked out at 0.986 and the IC50 was > 20 µM.

As for “MDA-MB-157 (breast, adherent, top dose 20 µM)”, the AUC was 0.988 and the IC50 is > 20 µM.

On to “MDA-MB-175-VII (breast, adherent, top dose 20 µM)”, for which the AUC amounted to 0.987 and the concentration for half-maximal inhibition (IC50) is > 20 µM.

With “MDA-MB-231 (breast, adherent, top dose 20 µM)”, the AUC was found to be 0.984 and the IC50 is > 20 µM.

As to “MDA-MB-330 (breast, adherent, top dose 20 µM)”, the AUC was found to be 0.979 and the IC50 is > 20 µM.

For “MDA-MB-361 (breast, adherent, top dose 20 µM)”, the AUC turned out to be 0.985 and the IC50 was > 20 µM.

With “MDA-MB-415 (breast, adherent, top dose 20 µM)”, the AUC stood at 0.983 and the IC50 is > 20 µM.

As to “MDA-MB-436 (breast, adherent, top dose 20 µM)”, the AUC came to 0.983 and the half-inhibitory concentration (IC50) was > 20 µM.

In the case of “MDA-MB-453 (breast, adherent, top dose 20 µM)”, the AUC was 0.976 and the IC50 is > 20 µM.

Take “MDA-MB-468 (breast, adherent, top dose 20 µM)”: the AUC came out at 0.983 and the IC50 was > 20 µM.

Turning to “MDST8 (large intestine, adherent, top dose 20 µM)”, the AUC is 0.978 and the IC50 was > 20 µM.

As for “ME-1 (acute myeloid leukaemia, suspension, top dose 20 µM)”, the AUC was found to be 0.937 and the concentration for half-maximal inhibition (IC50) was > 20 µM.

With “ME-180 (cervix, adherent, top dose 20 µM)”, the AUC was 0.97 and the IC50 is > 20 µM.

With “MEG-01 (chronic myeloid leukaemia, suspension, top dose 20 µM)”, the AUC amounted to 0.942 and the 50% inhibitory concentration (IC50) was > 20 µM.

In the case of “MEL-JUSO (melanoma, adherent, top dose 20 µM)”, the AUC was 0.944 and the IC50 is > 20 µM.

“MES-SA (uterus, adherent, top dose 20 µM)”: the AUC amounted to 0.992 and the IC50 is > 20 µM.

Take “MFE-280 (endometrium, adherent, top dose 20 µM)”: the AUC was found to be 0.959 and the concentration for half-maximal inhibition (IC50) was > 20 µM.
